Source: the supplement of paper PMC10126150
Values marked as one replicate rest on one cluster of the flow cell; about a third of the high ones do not repeat.

Test system: ATP
Assay: switch fluorescence ratio, 500 uM ATP over buffer (Cy3 cluster intensity, sum of 5 cycles each) (fold (ratio)); higher = stronger signal-on switching upon ATP binding; sequences stand for … in TCGTCGGCAGCGTCAGATGTGTATAAGAGACAGTTTTTTTTTTTTTTTTTTTTTTTTT…TC
Conditions: aptamer strand: ATP DNA aptamer (quencher-CACCTGGGGGAGTATTGCGGAGGAAGG + anchor), 100 nM annealed; ATP concentration: 500 uM; one replicate
Outline: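 Cy3-labelled switching-strand clusters on a modified Illumina MiSeq flow-cell were annealed to 100 nM quencher-labelled ATP aptamer and imaged first in selection buffer, then after 15 min with 500 uM ATP at 22 °C. NaOH stripping and re-annealing separated each of five buffer/ATP cycles, and clusters outside 100-1000 RFU were excluded. The fluorescence ratio sums target-cycle Cy3 intensity over buffer-cycle Cy3 intensity per cluster and averages it per switch-domain sequence.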
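Also: ATP exposure 15 min at 22 °C before imaging.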

Row | Sequence | switch fluorescence ratio
1 | TAGTCTACAT | 1.05
2 | GGAAGGGTAG | 1
3 | ACAGGGTTGC | 1
4 | ACGTCGTCAG | 0.975
5 | AATGGGTAGC | 1.03
6 | AAGGCTGGTA | 0.987
7 | GGGGAAATCG | 0.964
8 | CAGATCCGGC | 1
9 | AGGGTTAAGA | 0.996
10 | ACATTATCTG | 1.11
11 | GCATAGGAAA | 1.05
12 | CGACATGCGG | 1.02
13 | ATGGGGTTCC | 0.997
14 | CTAGGCCGAG | 0.869
15 | TCGGTTTTAG | 0.985
16 | CTATGACCGT | 1.04
17 | TTTAGACTGC | 0.948
18 | CTTTGCCAC | 1.12
19 | TAAGACCCTG | 1.04
20 | ACATGAAACA | 1.06
21 | CGAAGGAGGC | 1.07
22 | CGTCCAAGCA | 1.81
23 | AAGTAGTTCT | 1
24 | CCTAGTCAGC | 1.19
25 | GATTTCGGTT | 1.01

Row | Sequence | switch fluorescence ratio
26 | GAGCGTTTTA | 1
27 | TTGGGTCGGT | 0.99
28 | TTTCCAGCGG | 1.07
29 | TCCGGCCTTG | 1.03
30 | ACAACCAGC | 1.09
31 | TACCGATTCC | 1.43
32 | AACGGCCTAT | 1
33 | GGCAAAGATT | 1.01
34 | ATTTTTATCT | 0.957
35 | ATCATAAAGT | 1.03
36 | CGCCATAGAG | 1.03
37 | AGGCACTAAG | 1.01
38 | CATAAGGGGG | 1
39 | GACAATTAAG | 0.986
40 | GTCATACCCA | 1
41 | CTTATGCCTG | 0.993
42 | CAGGCCGTTG | 0.972
43 | CGAGGTGAGG | 1.01
44 | ACCCCCACAC | 1.48
45 | TCCTAAGCAC | 2.81
46 | TCAGTTATG | 0.992
47 | CCCTTCGGGC | 1.01
48 | TTTAGTTGGG | 1
49 | TATGTTACGA | 1.04
50 | GCAGCGGGCT | 0.934

Row | Sequence | switch fluorescence ratio
51 | CGCCGTGCTA | 0.947
52 | CGGTTAACAA | 1.05
53 | TCACGCTACG | 1.49
54 | TAGTTTTAGT | 1.05
55 | GGTGTAGAC | 1.02
56 | CCAAGGTTAA | 0.983
57 | TGGGGTGCTT | 0.999
58 | AAAGCTAGAG | 1.04
59 | GAGCTAAGAT | 1.02
60 | AAGTCTGC | 1.01
61 | GGAGTCCCTA | 0.983
62 | CACGATAAAA | 1.04
63 | AGAACTCCTA | 0.997
64 | GCAAAAGGTG | 1.02
65 | ACCGCGGGGA | 1.02
66 | TTTCGACCCA | 1.04
67 | GACTTGGATG | 0.989
68 | TCCACAGA | 1.05
69 | GCCTCTCTTA | 1.03
70 | TAGAGCATAG | 1.08
71 | CGTTATAGTT | 1.02
72 | TCTGGAAAAT | 1.03
73 | GGATCTGACG | 0.919
74 | AAAGTCGAGG | 0.988
75 | GTAGACACAA | 1.03

Row | Sequence | switch fluorescence ratio
76 | AGAGTAGCAA | 1.57
77 | CGGGTATCAC | 1.02
78 | ATAATCGACG | 0.987
79 | GGCCCAGATG | 2.24
80 | GATATCAATG | 0.999
81 | AATGTGATAG | 0.983
82 | TGTGGAGGAG | 0.962
83 | GTGTAGTGGC | 0.988
84 | TGTGGCGCCC | 0.955
85 | TGGAGTGGT | 0.978
86 | TAGAGTCATG | 1
87 | TGGGGAGGT | 0.988
88 | TAGCCAGGAT | 1.01
89 | ATAGGCGAGC | 1.02
90 | CGAGATTCTT | 0.987
91 | TTCCTTTTCG | 1
92 | ATTATTCCCC | 1.02
93 | ATGGACTTGA | 1.02
94 | TAGTTCAGTA | 0.999
95 | GATGGATCAA | 1.01
96 | GGGATGTTGT | 0.991
97 | TGTCACATGA | 0.999
98 | CCATGCAGAG | 1.1
99 | GAACCTGGCT | 1.07
100 | ACGTAGTTCT | 0.987

Row | Sequence | switch fluorescence ratio
101 | TTTAAGTTCA | 0.979
102 | GATGGTACTG | 0.996
103 | GACCATTACG | 1.13
104 | ATTTGGAGAG | 0.961
105 | CTTGTGGGTC | 1.02
106 | TTCCTCGTAG | 1.24
107 | ATAATACGTA | 1.04
108 | TAATTCCTCC | 2.04
109 | GCAGATAT | 1.03
110 | AAACGACATA | 1.08
111 | GATTTAATG | 1.02
112 | GGATCGCGAT | 1.02
113 | CGATCATGT | 0.969
114 | CTAGCACTTC | 1.24
115 | CTTCTAAGTG | 0.977
116 | TACCGGCCGT | 1.02
117 | GTGTAGGAGA | 0.998
118 | AATAAGCTGA | 0.988
119 | TTAATGAACT | 1.02
120 | TCACCTGAGC | 1.1
121 | TAAGCCGGTG | 0.98
122 | CGGGCCCCTT | 1.02
123 | CGAAAAAGCA | 1.26
124 | CGCATAGCAG | 0.99
125 | GCCGTACGTG | 0.983

Row | Sequence | switch fluorescence ratio
126 | GTGAGTTGTT | 1.01
127 | ACACAGGTTT | 1.12
128 | TTTGTTAGTT | 0.965
129 | TCATCGGCG | 0.914
130 | CCAGGAACCG | 1.05
131 | AGCGGTGCGT | 1.01
132 | CTAGACTGCC | 1.13
133 | AGTATTCTTT | 1.18
134 | TCATTCCGGC | 1.23
135 | AAAAATGTAG | 1.02
136 | ATTATACTAC | 1.04
137 | TCGTAAGGTA | 0.987
138 | TTCGGGTACA | 1.03
139 | CTGCATGTCC | 1.49
140 | GTTTCATCG | 1.01
141 | TGGTATCGCG | 1
142 | TATCTATATC | 1.02
143 | AATGTTTATA | 0.955
144 | CGGATTATTA | 0.993
145 | TCTTAACCCG | 0.98
146 | TGTTCATCTG | 1.01
147 | TTCTGATTCC | 1.07
148 | AATATCACCT | 1.21
149 | GATAACTCGA | 0.999
150 | ATCCGAGAGT | 0.978

Row | Sequence | switch fluorescence ratio
151 | GTGTATACGC | 1.02
152 | TATGAGAGTT | 1.02
153 | ATGCCGCGGG | 0.996
154 | GGGCGACAG | 0.99
155 | CAAAGTCGCT | 1.04
156 | CAAGGGCCAC | 0.983
157 | TCTCGTCTGT | 0.987
158 | TTATCCGTGG | 0.99
159 | CTTATTAATG | 1
160 | CCGGCGGTAT | 1.12
161 | TTATACGTAC | 1.88
162 | CTTTTGTCGG | 0.988
163 | TAGTGCACGC | 0.977
164 | TTAGTCCTGG | 0.983
165 | CCTCTTGTGG | 1.04
166 | TAGTCTTTAA | 1.03
167 | CTTTTTGGCC | 0.994
168 | GCCCATTAAT | 1.02
169 | GCTCGAATTG | 0.965
170 | TCAGCTTCTT | 0.994
171 | GATAGTAATC | 1
172 | CGAGGATCGT | 0.98
173 | AATTGGCAGC | 0.972
174 | CTCATGTCGA | 1.02
175 | GGGGCATTGA | 0.997

Row | Sequence | switch fluorescence ratio
176 | AGATACAGTA | 0.988
177 | GCTAAGAGGG | 1.01
178 | GATGCAACGT | 1.04
179 | CTTTTAAGAC | 0.993
180 | CGTGGTTCTT | 0.976
181 | GCAGTAGAGA | 0.992
182 | GTTAATTCCT | 1.01
183 | GGAGGCGAAG | 1.01
184 | CAGTGCGGTA | 0.996
185 | TAACGGTTGG | 1.01
186 | AAGTTTCTGA | 0.984
187 | TTTTCTACTC | 0.98
188 | TCGATACACG | 1.05
189 | CAGACCACTA | 1.1
190 | GTCTCAAACC | 1.09
191 | ACTTCTGCTG | 1
192 | GAGCCGGTTG | 0.961
193 | TGCGGTAAAC | 1.07
194 | GCTAACACAT | 0.988
195 | GGAACTTTGA | 0.992
196 | TTTGGACGTA | 1.04
197 | TTTGTTTCGC | 1.03
198 | CGTCGCGGGG | 0.976
199 | TGTGTGAGG | 1.03
200 | AAGCGGGCTT | 0.989
